Experimental findings from the supplement of paper PMC8007513 are described below.

The test system of the test is Trichoderma virens ATCC 9645. Description: growth yield (OD600) with compound + IPBC relative to untreated control; higher = less growth inhibition. Particulars: compound concentration: 100 uM, IPBC concentration: 200 ng/ml. The essentials: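 Trichoderma virens ATCC 9645 spores, from potato dextrose agar plates grown for 7 days, were brought to 15,000 spores ml^−1 in potato dextrose broth and dispensed as 100 μl aliquots into 96-well plates. Each aliquot received library compounds at 100 μM final, with or without a biocide at 200 ng ml^−1, before growth at 30 °C and OD600 readings on a BioTek EL800 at 40 h and 72 h. Growth is expressed relative to the control containing neither agent and represents means of duplicate screens.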

The structures appear in SMILES notation. Where a name gives a salt, the structure may show the parent alone. ± gives the standard error. Hit rate of the full screen: of about 1,300 compounds, about 130 (10%) showed an effect of 50% or more. The entries are a selection whose mix differs from that of the whole data set.

Regarding `CN1CCN(c2c(F)cc3c(=O)c(C(=O)O)cn(CCF)c3c2F)CC1` [Fleroxacin] + CCCCNC(=O)OCC#CI [3-iodo-2-propynyl butylcarbamate (IPBC)], the growth yield (40 h) turned out to be 84.98 ± 0.79% and the growth yield (72 h) is 89.67 ± 0.73%.
For `C[C@H](CCC(=O)O)[C@H]1CC[C@H]2[C@@H]3[C@H](O)C[C@@H]4C[C@H](O)CC[C@]4(C)[C@H]3CC[C@]12C` [Chenodiol] + CCCCNC(=O)OCC#CI [3-iodo-2-propynyl butylcarbamate (IPBC)], in that order: 79.58 ± 0.48% and 94.5 ± 1.1%.
For the compound `NNc1nncc2ccccc12` [Hydralazine hydrochloride] + CCCCNC(=O)OCC#CI [3-iodo-2-propynyl butylcarbamate (IPBC)], the growth yield (40 h) was determined as 120 ± 6.8% and the growth yield (72 h) is 125 ± 11%.
For `CC(=O)OCC(CCn1cnc2cnc(N)nc21)COC(C)=O` [Famciclovir] + CCCCNC(=O)OCC#CI [3-iodo-2-propynyl butylcarbamate (IPBC)], in that order: 112 ± 8.4% and 108 ± 6%.
The matching figures for `COc1c2occc2c(OC)c2c(=O)cc(C)oc12` [Khellin] + CCCCNC(=O)OCC#CI [3-iodo-2-propynyl butylcarbamate (IPBC)]: 89.1 ± 5.9% and 96.1 ± 4.2%.
The matching figures for `Nc1cc(C(Cl)=C(Cl)Cl)c(S(N)(=O)=O)cc1S(N)(=O)=O` [Clorsulon] + CCCCNC(=O)OCC#CI [3-iodo-2-propynyl butylcarbamate (IPBC)]: 86.4 ± 2.2% and 90.8 ± 3.1%.
On to `CC[C@H](C)C(=O)O[C@H]1CCC=C2C=C[C@H](C)[C@H](CC[C@@H]3C[C@@H](O)CC(=O)O3)[C@H]21` [Mevastatin] + CCCCNC(=O)OCC#CI [3-iodo-2-propynyl butylcarbamate (IPBC)], for which the growth yield runs as follows: (40 h) 98.6 ± 4.3%; (72 h) 93.8 ± 1.1%.
The matching figures for `O=S(=O)(O)c1cc(O)ccc1O` [Ethamsylate] + CCCCNC(=O)OCC#CI [3-iodo-2-propynyl butylcarbamate (IPBC)]: 91.5 ± 8.3% and 96.2 ± 6.8%.
Regarding `c1ccc([C@H]2CN3CCSC3=N2)cc1` [Levamisole hydrochloride] + CCCCNC(=O)OCC#CI [3-iodo-2-propynyl butylcarbamate (IPBC)], the growth yield is, setting by setting: (40 h) 94.5 ± 2.1%; (72 h) 97.33 ± 0.21%.
On to `CCC(=O)O[C@]1(C(=O)CCl)[C@@H](C)C[C@H]2[C@@H]3CCC4=CC(=O)C=C[C@]4(C)[C@@]3(F)[C@@H](O)C[C@@]21C` [Clobetasol propionate] + CCCCNC(=O)OCC#CI [3-iodo-2-propynyl butylcarbamate (IPBC)], for which the growth yield is, setting by setting: (40 h) 109 ± 7.2%; (72 h) 106 ± 4.7%.
The matching figures for `CCCNCC(O)COc1ccccc1C(=O)CCc1ccccc1` (centres undefined) [Propafenone hydrochloride] + CCCCNC(=O)OCC#CI [3-iodo-2-propynyl butylcarbamate (IPBC)]: 77.04 ± 0.16% and 88.8 ± 2%.
As to `NC(=O)C(c1ccccc1)(c1ccccc1)[C@@H]1CCN(CCc2ccc3c(c2)CCO3)C1` [Darifenacin hydrobromide] + CCCCNC(=O)OCC#CI [3-iodo-2-propynyl butylcarbamate (IPBC)], the growth yield reads like this: (40 h) 80.4 ± 4.1%; (72 h) 88.9 ± 1.1%.
Turning to `COc1ccccc1OCC(O)CN1CCN(CC(=O)Nc2c(C)cccc2C)CC1` (centres undefined) [Ranolazine] + CCCCNC(=O)OCC#CI [3-iodo-2-propynyl butylcarbamate (IPBC)], the growth yield (40 h) was found to be 89.7 ± 2.4% and the growth yield (72 h) turned out to be 94.2 ± 2.7%.
For `COc1cc([C@@H]2c3cc4c(cc3[C@@H](O[C@@H]3O[C@@H]5CO[C@@H](C)O[C@H]5[C@H](O)[C@H]3O)[C@H]3COC(=O)[C@H]23)OCO4)cc(OC)c1O` [Etoposide] + CCCCNC(=O)OCC#CI [3-iodo-2-propynyl butylcarbamate (IPBC)], in that order: 82.4 ± 7.8% and 94.3 ± 2.8%.
For `C[C@H]1C[C@@H]2[C@H]([C@@H](O)C[C@@]3(C)[C@H]2CC[C@]3(O)C(=O)CO)[C@@]2(C)C=CC(=O)C=C12` [Methylprednisolone, 6-alpha] + CCCCNC(=O)OCC#CI [3-iodo-2-propynyl butylcarbamate (IPBC)], in that order: 90.4 ± 12% and 98.9 ± 9.3%.
The matching figures for `CC(C)NCC(O)c1ccc2ccccc2c1` (centres undefined) [Pronethalol hydrochloride] + CCCCNC(=O)OCC#CI [3-iodo-2-propynyl butylcarbamate (IPBC)]: 92 ± 1.8% and 95.3 ± 1.8%.
In the case of `Nc1nc2n[nH]nc2c(=O)[nH]1` [Azaguanine-8] + CCCCNC(=O)OCC#CI [3-iodo-2-propynyl butylcarbamate (IPBC)], the growth yield by setting is: (40 h) 7.47 ± 1.1%; (72 h) 12.2 ± 0.21%.
The matching figures for `CN(C)c1nc(N(C)C)nc(N(C)C)n1` [Altretamine] + CCCCNC(=O)OCC#CI [3-iodo-2-propynyl butylcarbamate (IPBC)]: 81.8 ± 1.1% and 88.6 ± 0.94%.
The matching figures for `CN(C)C(=O)Oc1cc(OC(=O)N(C)C)cc(C(O)CNC(C)(C)C)c1` (centres undefined) [Bambuterol hydrochloride] + CCCCNC(=O)OCC#CI [3-iodo-2-propynyl butylcarbamate (IPBC)]: 96.9 ± 11% and 103 ± 5.2%.
In the case of `CC[C@H]1OC(=O)[C@H](C)[C@@H](O[C@H]2C[C@@](C)(OC)[C@@H](O)[C@H](C)O2)[C@H](C)[C@@H](O[C@@H]2O[C@H](C)C[C@H](N(C)C)[C@H]2O)[C@](C)(O)C[C@@H](C)[C@@H]2N[C@@H](COCCOC)O[C@H]([C@H]2C)[C@]1(C)O` [Dirithromycin] + CCCCNC(=O)OCC#CI [3-iodo-2-propynyl butylcarbamate (IPBC)], the growth yield by setting is: (40 h) 89 ± 9.5%; (72 h) 94.9 ± 6.4%.
The matching figures for `O=C1CC2(CCCC2)CC(=O)N1CCCCN1CCN(c2ncccn2)CC1` [Buspirone hydrochloride] + CCCCNC(=O)OCC#CI [3-iodo-2-propynyl butylcarbamate (IPBC)]: 106 ± 3.6% and 104 ± 1.3%.
Turning to `CCn1cc(C(=O)O)c(=O)c2cc3c(cc21)OCO3` [Oxolinic acid] + CCCCNC(=O)OCC#CI [3-iodo-2-propynyl butylcarbamate (IPBC)], the growth yield by setting is: (40 h) 88.2 ± 2.1%; (72 h) 94.8 ± 3.1%.
For `C[C@]12CC[C@H](O)C[C@@H]1CC[C@@H]1[C@@H]2CC[C@]2(C)C(=O)CC[C@@H]12` [Epiandrosterone] + CCCCNC(=O)OCC#CI [3-iodo-2-propynyl butylcarbamate (IPBC)], in that order: 75.9 ± 1.6% and 93.5 ± 1.5%.
For `CCC1(c2ccc(N)cc2)CCC(=O)NC1=O` (centres undefined) [Glutethimide, para-amino] + CCCCNC(=O)OCC#CI [3-iodo-2-propynyl butylcarbamate (IPBC)], in that order: 111 ± 4.1% and 112 ± 4.5%.
The matching figures for `CC1Cc2ccccc2N1NC(=O)c1ccc(Cl)c(S(N)(=O)=O)c1` (centres undefined) [Indapamide] + CCCCNC(=O)OCC#CI [3-iodo-2-propynyl butylcarbamate (IPBC)]: 87.2 ± 0.16% and 95.4%.
For the compound `CCN(C)C(=O)Oc1cccc([C@H](C)N(C)C)c1` [Rivastigmine] + CCCCNC(=O)OCC#CI [3-iodo-2-propynyl butylcarbamate (IPBC)], the growth yield turned out to be 97.1 ± 4% (40 h) and 95.1 ± 3.7% (72 h).
For `Nc1ccc(S(=O)(=O)Nc2ccnn2-c2ccccc2)cc1` [Sulfaphenazole] + CCCCNC(=O)OCC#CI [3-iodo-2-propynyl butylcarbamate (IPBC)], in that order: 95.5 ± 2.4% and 99.53 ± 0.1%.
The matching figures for `CC[C@@]1([C@@H]2O[C@@H]([C@H]3O[C@@](O)(CO)[C@H](C)C[C@@H]3C)C[C@@H]2C)CC[C@H]([C@]2(C)CC[C@]3(C[C@H](O)[C@@H](C)[C@@H]([C@@H](C)[C@@H](OC)[C@H](C)C(=O)O)O3)O2)O1` [Monensin sodium salt] + CCCCNC(=O)OCC#CI [3-iodo-2-propynyl butylcarbamate (IPBC)]: 79.4 ± 9.8% and 89.6 ± 9.2%.
With `CCN1CCN(c2cc3c(cc2F)c(=O)c(C(=O)O)cn3C2CC2)CC1` [Enrofloxacin] + CCCCNC(=O)OCC#CI [3-iodo-2-propynyl butylcarbamate (IPBC)], the growth yield came out at 85 ± 2.4% (40 h) and 86.1 ± 2.2% (72 h).
The matching figures for `Cc1cnc(NC(=O)C2=C(O)c3ccccc3S(=O)(=O)N2C)s1` [Meloxicam] + CCCCNC(=O)OCC#CI [3-iodo-2-propynyl butylcarbamate (IPBC)]: 63.4 ± 0.79% and 88.2 ± 0.1%.
For `CN1[C@@H]2CC[C@H]1C[C@@H](OC1c3ccccc3CCc3ccccc31)C2` [Deptropine citrate] + CCCCNC(=O)OCC#CI [3-iodo-2-propynyl butylcarbamate (IPBC)], in that order: 63.9 ± 1.3% and 86.8 ± 1.1%.
For `O=C(O)/C=C/c1ccc(Cn2ccnc2)cc1` [Ozagrel hydrochloride] + CCCCNC(=O)OCC#CI [3-iodo-2-propynyl butylcarbamate (IPBC)], in that order: 105 ± 12% and 103 ± 8.7%.
For `CCCc1nc(C)c2c(=O)nc(-c3cc(S(=O)(=O)N4CCN(CC)CC4)ccc3OCC)[nH]n12` [Vardenafil] + CCCCNC(=O)OCC#CI [3-iodo-2-propynyl butylcarbamate (IPBC)], the growth yield amounted to 94.7 ± 4.8% (40 h) and 97.6 ± 1.8% (72 h).
The matching figures for `CCn1nc(C(=O)O)c(=O)c2cc3c(cc21)OCO3` [Cinoxacin] + CCCCNC(=O)OCC#CI [3-iodo-2-propynyl butylcarbamate (IPBC)]: 93.7 ± 3.5% and 94 ± 1.5%.
The matching figures for `COCCOC(=O)C1=C(C)NC(C)=C(C(=O)OC/C=C/c2ccccc2)C1c1cccc([N+](=O)[O-])c1` (centres undefined) [Cilnidipine] + CCCCNC(=O)OCC#CI [3-iodo-2-propynyl butylcarbamate (IPBC)]: 95.78 ± 0.48% and 96.5%.
Consider `O=C(NCCO[N+](=O)[O-])c1cccnc1` [Nicorandil] + CCCCNC(=O)OCC#CI [3-iodo-2-propynyl butylcarbamate (IPBC)], for which the growth yield came to 85.5 ± 1.9% (40 h) and 92.9 ± 2.9% (72 h).
The matching figures for `C=C1/C(=C\C=C2/CCC[C@]3(C)[C@@H]([C@H](C)/C=C/[C@@H](O)C4CC4)CC[C@@H]23)C[C@@H](O)C[C@@H]1O` [Calcipotriene] + CCCCNC(=O)OCC#CI [3-iodo-2-propynyl butylcarbamate (IPBC)]: 110.2 ± 0.64% and 108%.
